Measurements from PubChem BioAssay AID1645887 (National Center for Advancing Translational Sciences (NCATS), 2021).
Several values for one entry are separate records, joined by “and”; a condition that tells them apart may be missing. Equal values may be shown once. The campaign covered roughly 16,000 compounds. About 40 (0.2%) were called active. Not shown: some 1% with an inconclusive outcome. The call rests on the fitted dose curve; in most records, active means well fitted activation curve with a large enough effect; inconclusive means small, poorly fitted or top-dose-only effect, or another doubt; inactive means no such curve, though single readings can be large or run the other way. This is one part of the list.

biological target: Rap guanine nucleotide exchange factor 4 (Homo sapiens) (UniProt Q8WZA2); experiment: Validation qHTS for agonist of cAMP-regulated guanine nucleotide exchange factor 4 (EPAC2); settings: EPAC2 Rap1B BODIPY-GDP exchange, fluorescence; activation: stronger effect = higher value;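 further: exchange makes BODIPY-GDP fluorescence drop when released from Rap1B; series mostly up to about 150 µM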
Chain of UniProt Q8WZA2 (Q8WZA2 whole entry, looked up): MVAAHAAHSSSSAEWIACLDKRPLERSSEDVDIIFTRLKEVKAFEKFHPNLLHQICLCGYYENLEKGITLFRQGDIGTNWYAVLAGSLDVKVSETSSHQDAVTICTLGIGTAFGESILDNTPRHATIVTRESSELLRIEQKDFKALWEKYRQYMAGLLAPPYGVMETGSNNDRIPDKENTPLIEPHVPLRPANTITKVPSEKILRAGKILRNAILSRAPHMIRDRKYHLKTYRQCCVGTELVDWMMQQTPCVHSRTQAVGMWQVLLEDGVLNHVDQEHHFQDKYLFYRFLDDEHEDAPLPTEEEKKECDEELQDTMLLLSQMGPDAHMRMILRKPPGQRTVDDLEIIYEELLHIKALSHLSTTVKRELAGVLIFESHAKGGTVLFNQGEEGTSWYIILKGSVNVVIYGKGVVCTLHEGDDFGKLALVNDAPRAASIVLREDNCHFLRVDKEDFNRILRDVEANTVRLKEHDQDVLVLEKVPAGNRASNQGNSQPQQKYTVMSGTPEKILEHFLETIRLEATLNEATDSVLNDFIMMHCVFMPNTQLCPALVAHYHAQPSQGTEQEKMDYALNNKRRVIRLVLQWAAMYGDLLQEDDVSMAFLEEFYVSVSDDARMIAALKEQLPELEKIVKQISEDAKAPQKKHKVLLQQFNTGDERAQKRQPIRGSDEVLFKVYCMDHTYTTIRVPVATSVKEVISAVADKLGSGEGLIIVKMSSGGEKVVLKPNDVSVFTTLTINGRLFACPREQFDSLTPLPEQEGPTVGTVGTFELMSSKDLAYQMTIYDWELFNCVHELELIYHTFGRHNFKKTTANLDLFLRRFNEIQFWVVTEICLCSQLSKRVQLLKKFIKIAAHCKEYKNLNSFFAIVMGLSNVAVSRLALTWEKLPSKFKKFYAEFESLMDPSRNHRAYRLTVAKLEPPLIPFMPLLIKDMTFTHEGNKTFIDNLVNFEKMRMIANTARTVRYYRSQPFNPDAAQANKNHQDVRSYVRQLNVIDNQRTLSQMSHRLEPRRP
How it was run: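 Fluorescent exchange assay: 100 nM EPAC2 with 250 nM RAP1B-BODIPY-GDP and 50 uM GDP; compound added, 5 min at room temperature, then read (ex 480/em 540 nm) every 5 min for 30 min. Normalized to 6.5 mM cAMP agonist control.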
On the % scale 0 is the no-effect control and ±100 the full control effect.

activation, inactive:
O=C(O)c1ccccc1Nc1cc(Cl)ccc1C(=O)O 8.54%
c1csc(CNc2nc(-c3ccoc3)nc3ccccc23)c1 11.9%
CNC1C(O)C2OC3OC(C)CC(=O)[C@@]3(O)O[C@H]2[C@H](NC)C1O (stereo partly specified) 1.15%
O=C(c1ccc2c(c1)OCCO2)N1CCCCC1 -3.26%
Cc1nc(C)c(C(=O)N2CCc3c(cnc(C)c3CNC(=O)c3cncs3)C2)s1 -2.5%
COc1ccc(Oc2ncc3nc(-c4cc(F)cc(F)c4)c(=O)n(C4CC4)c3n2)cc1 -9.8%
COc1ccc(C(=O)N2CCC3(CCCN(Cc4ccncc4)C3)CC2)cc1 -11.2%
CC(C)NC(=O)N1CC[C@@]2(CCCN(C(=O)c3csnn3)C2)C1 -13.1%
C=C[C@](C)(O)CCC=C(C)C -5.76%
COc1cc(-c2ccc(Cl)cn2)cc2c1OCCN(S(=O)(=O)C[C@]13CC[C@H](CC1=O)C3(C)C)C2 -4.04%
Cc1cc(NS(=O)(=O)c2ccc(N)cc2)no1 -9.29% and -9.07%
COC(=O)C[C@H]1c2cc(C(F)(F)F)ccc2S(=O)(=O)N1Cc1ccccc1 -16.2%
C=C[C@@H](C1=CC(=O)C(OC)=C(OC)C1=O)c1ccccc1 -14.9%
Cc1c(CN2CCOc3c(O)cc(-c4nc5ccccc5s4)cc3C2)cnn1C -13.4%
Cc1ccnc2c(Cl)ccc(Cl)c12 -24.2%
C=C1CCC(O)C/C1=C/C=C1\CCC[C@@]2(C)C(C(C)/C=C/C(C)C(C)C)CC[C@@H]12 (stereo partly specified) -33.9%
Clc1ccccc1-c1cncnc1NCc1cccs1 -5.74%
COc1ccc(C(=O)N2CCCC(c3nc(SCc4ccccn4)ncc3C)C2)cc1F (stereo unspecified) -21.9%
O=C1CN(/N=C/c2ccc(-c3ccc([N+](=O)[O-])cc3)o2)C(=O)N1 -4.02%
COc1ccc(CNc2ncncc2-c2cccnc2)c(OC)c1 7.59%
Cc1cnc(CNc2nc(-c3ccccc3C(F)(F)F)nc3ccccc23)cn1 -8.22%
CCC(=O)Oc1ccc2c(c1)CC[C@@H]1[C@@H]2CC[C@]2(C)[C@@H](OC(=O)CC)CC[C@@H]12 -23.4%
CC(=O)Nc1ccccc1-c1nc(CNC(=O)c2ccc(-n3cccn3)cc2)c(C)o1 -6.88%
C#Cc1cccc(C(=O)NCc2nc(-c3ccccc3NC(=O)C3CCCO3)oc2C)c1 (stereo unspecified) -13.1%
CC(C)c1c(O)ccc2c1CCC1[C@@](C)(CO)CCC[C@@]21C (stereo partly specified) 15%
Cn1c(=O)c(-c2cccc(C#N)c2)nc2cnc(Oc3ccccc3)nc21 6.56%
Cc1cc(C=O)cc(C)c1[N+](=O)[O-] -9.96%
Cc1noc(C)c1C(=O)N1CCC2(CCN(Cc3ccc(C#N)cc3)CC2)CC1 4.93%
c1cncc(CNc2nc(-c3ccc4c(c3)OCO4)nc3ccccc23)c1 2.9%
Cc1cnc(C(=O)N2CCOc3ccc(CN4CCCC(C(=O)c5cccnc5)C4)cc3C2)[nH]1 (stereo unspecified) 5.58%
CC1(O)CCC(C(C)(C)O)CC1 (stereo unspecified) -9.93%
COC(=O)C(C)(N)Cc1ccc(O)cc1 (stereo unspecified) -18.8%
C[C@@H](Cc1ccccc1)Nc1ncnc2c1ncn2[C@@H]1O[C@H](CO)[C@@H](O)[C@H]1O -7.61%
Cc1ccccc1-c1cncnc1NCc1ccccc1 -2.84%
CCC1COCCS(=O)(=O)N1Cc1cccc(C(F)(F)F)c1 (stereo unspecified) -26.6%
CC(C)CN1CCC2(CC1)CCN(C(=O)c1csnn1)CC2 -22.3%
COc1cc(O)c2c(c1)C(=O)c1cc(C)cc(O)c1C2=O -11.6%
Cc1nc2cc(NC(=O)[C@@H]3C[C@@H](Sc4ccccn4)CN3Cc3ccc(F)cc3F)ccc2s1 -16.1%
CCOC(=O)n1ccn(C)c1=S -19.9% and -4.44%
O=C1OC(=O)C2C3CCC(O3)C12 (stereo unspecified) -11.8% and 5.48% and -16.4%
O=P(O)(O)OP(=O)(O)O -9.69%
COc1cc(C(C)=O)ccc1OCCCN1CCC(c2noc3cc(F)ccc23)CC1 5.26%
CCOC(=O)[C@H](CCc1ccccc1)N[C@H]1CCCN2CCC[C@@H](C(=O)O)N2C1=O -8.9%
CCCC1O[C@@H]2C[C@H]3[C@@H]4CCC5=CC(=O)C=C[C@]5(C)[C@H]4[C@@H](O)C[C@]3(C)[C@]2(C(=O)CO)O1 (stereo partly specified) -9.98% and -1.12%
c1ccc(-c2ccc(N3CC[C@@]4(CCCNC4)C3)cc2)cc1 -10.1%
NCCC1CCCC(CCN)N1 (stereo unspecified) -14%
CCS(=O)(=O)Nc1cc(C(=O)N2CCC[C@H]2CO)c2c(c1)nc(-c1ccccc1)n2C 3.54%
Cc1cc(COC(=O)C2N3C(=O)[C@@H](NC(=O)COc4ccccc4)[C@H]3SC2(C)C)on1 (stereo partly specified) -3.19%
COc1ccc(C(=O)N2CCC3(CCCN(Cc4cc(C(F)(F)F)cc(C(F)(F)F)c4)C3)CC2)cc1 -15.5%
COc1ccccc1-c1ccc2ncnc(NCCN3CCOCC3)c2c1 -14.7%
COc1ccc(OC)c(-c2cc(Cl)c3c(c2)CC(CNC(=O)[C@@H]2CCCN2C(C)=O)O3)c1 (stereo partly specified) -25.1%
Cc1ccccc1C1(CC(=O)N2CCOCC2)CC(=O)N(Cc2cccnc2)C1=O (stereo unspecified) -20.3%
O=C(O)C[C@H]1c2cc(C(F)(F)F)ccc2S(=O)(=O)N1C1CCCCC1 -9.54%
CN(Cc1ccco1)c1nc(-c2ccccc2C(F)(F)F)nc2ccccc12 -10.3%
COc1cc(-c2noc(C)c2-c2ccc(N(C)C)nc2)cc(OC)c1OC -16.9%
CN1[C@@H]2CC[C@H]1CC(OC(=O)c1c[nH]c3ccccc13)C2 (stereo partly specified) 1.87%
